Results as given in patent publication US6670161B1, “Compositions and methods for template-dependent enzymatic synthesis of nucleic acid” (The Board of Trustees of the Leland Stanford Jr. University, priority 1991, dated 2003).

Target: T1, recombinant human DNA polymerase α (Homo sapiens, UniProt P09884)
T1 construct: AcHDP α, expresses the full length recombinant human DNA polymerase α catalytic subunit from its natural ATG start codon; made in house; host or cells: Spodoptera frugiperda Sf9 cells infected with AcHDPα baculovirus
T1 sequence (P09884 1-1462): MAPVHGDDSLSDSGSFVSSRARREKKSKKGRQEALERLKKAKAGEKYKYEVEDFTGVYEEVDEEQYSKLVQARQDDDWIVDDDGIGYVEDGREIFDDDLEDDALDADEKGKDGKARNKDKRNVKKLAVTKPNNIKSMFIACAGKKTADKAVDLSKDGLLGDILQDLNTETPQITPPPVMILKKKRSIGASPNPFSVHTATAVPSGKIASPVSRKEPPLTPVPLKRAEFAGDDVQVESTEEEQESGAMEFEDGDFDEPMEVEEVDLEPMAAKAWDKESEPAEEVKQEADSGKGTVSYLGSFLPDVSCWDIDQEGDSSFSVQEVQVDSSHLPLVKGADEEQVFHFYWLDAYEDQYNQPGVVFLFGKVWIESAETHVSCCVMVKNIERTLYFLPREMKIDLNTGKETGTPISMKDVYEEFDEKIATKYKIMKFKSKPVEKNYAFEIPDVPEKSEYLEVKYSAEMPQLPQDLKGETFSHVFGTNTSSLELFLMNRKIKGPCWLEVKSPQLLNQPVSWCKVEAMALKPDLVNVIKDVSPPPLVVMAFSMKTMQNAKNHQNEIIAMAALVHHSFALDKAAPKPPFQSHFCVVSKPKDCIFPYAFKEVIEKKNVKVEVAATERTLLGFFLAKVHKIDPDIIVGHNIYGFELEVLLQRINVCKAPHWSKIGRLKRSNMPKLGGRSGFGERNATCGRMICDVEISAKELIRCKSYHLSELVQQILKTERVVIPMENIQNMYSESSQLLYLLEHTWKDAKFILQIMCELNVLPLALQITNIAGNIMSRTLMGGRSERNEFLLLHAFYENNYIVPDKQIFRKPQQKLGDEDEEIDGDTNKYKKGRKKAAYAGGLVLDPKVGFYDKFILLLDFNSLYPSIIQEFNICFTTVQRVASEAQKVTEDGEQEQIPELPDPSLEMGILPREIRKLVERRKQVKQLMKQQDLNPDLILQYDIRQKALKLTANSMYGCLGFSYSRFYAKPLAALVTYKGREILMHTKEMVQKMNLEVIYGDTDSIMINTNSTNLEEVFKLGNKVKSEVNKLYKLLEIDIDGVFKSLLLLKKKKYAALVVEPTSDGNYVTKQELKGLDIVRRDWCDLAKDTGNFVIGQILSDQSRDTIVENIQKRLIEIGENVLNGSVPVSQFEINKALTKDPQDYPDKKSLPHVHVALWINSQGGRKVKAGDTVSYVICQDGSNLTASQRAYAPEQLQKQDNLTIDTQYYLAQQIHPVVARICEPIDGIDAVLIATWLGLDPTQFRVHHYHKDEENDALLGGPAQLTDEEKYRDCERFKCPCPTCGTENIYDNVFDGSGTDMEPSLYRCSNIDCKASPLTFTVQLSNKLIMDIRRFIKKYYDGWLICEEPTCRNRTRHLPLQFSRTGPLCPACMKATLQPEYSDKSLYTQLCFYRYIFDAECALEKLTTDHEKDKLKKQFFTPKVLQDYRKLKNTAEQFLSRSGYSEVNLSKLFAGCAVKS
Experiment: Primer extension test for incorporation of nucleotide analog
Assay type: biochemical
Settings: 0.07 units recombinant polymerase α, 0 to 10 minutes

SMILES: Cc1cn([C@H]2C[C@H](O)[C@@H](COP(=O)(O)OP(=O)(O)OP(=O)(O)O)O2)c(=O)[nH]c1=O [dTTP]
- incorporation, standing start primer-template: extends the original primer length of 18 bases to 19 bases
